Measured values as given in PubChem BioAssay AID686978 (National Center for Advancing Translational Sciences (NCATS), 2013).
Out of some 420,000 compounds screened, about 64,000 (15%) were called active. The inconclusive results got no clear call from the source; some entries with a clear call stand among them for comparison. The call rests on the fitted dose curve; in most records, active means well fitted inhibition curve with a large enough effect; inconclusive means small, poorly fitted or top-dose-only effect; inactive means flat fitted curve, though single readings scatter. No potency is given beside an inconclusive call; the fits are too rough.

Experiment: qHTS for Inhibitors of human tyrosyl-DNA phosphodiesterase 1 (TDP1): qHTS in cells in absence of CPT; further: nearly all actives have a fitted effect of over 55% in size
Details: DT40 Tdp1-/- hTDP1 cells, no CPT, ATP luminescence, 48 h; activity change, negative = growth inhibition: at 46.2 µM (top of the series) unless noted
Method in brief: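 Camptothecin absent (DMSO only). Human TDP1-complemented DT40 knockout cells, 400 cells/well, 37 °C for minimum 48 hr; ATP measured via CellTiter-Glo, 30 min dark incubation, luminescence.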
On the % scale 0 is the no-effect control and ±100 the full control effect; potency means the concentration at half of the fitted maximal effect; tags describe the fitted curve by direction and shape.

| SMILES | Potency | activity change, negative = growth inhibition |
| --- | --- | --- |
| COC(=O)C1=C(c2ccc(-c3ccccc3)c(F)c2)C[C@@H]2CC[C@H]1N2C(=O)N1CCCC1 | active: 1.16 µM | – |
| C=CCn1c(=O)c(C=Nc2c(OC)cccc2[N+](=O)[O-])c(O)n(CCCC)c1=O | inactive | – |
| COc1ccc(C(c2nnnn2C2CCCC2)N2CCC3(CC2)C(=O)NCN3c2ccccc2)cc1 (centres undefined) | inconclusive [inhibitor, single point] | – |
| C/C(=N\N1CCCCC1c1cccnc1)c1c(O)n(C2CCCCC2)c(=S)[nH]c1=O (centres undefined) | inconclusive [inhibitor, single point] | – |
| CCC1CN1P1(=O)OCC(C)([N+](=O)[O-])CO1 (centres undefined) | inconclusive [inhibitor, partial curve, poor fit] | – |
| N=C1c2ccccc2CN1NC(=O)c1ccco1 | inactive | – |
| COc1cc(/C=C(/C)[N+](=O)[O-])ccc1OCc1ccccc1Cl | active: 2.91 µM | – |
| COc1cc(CN=C(C)c2c(O)n(C3CCCCC3)c(=O)[nH]c2=O)cc(OC)c1 | active: 23.1 µM | – |
| COC[C@H]1OC(=O)c2coc3c2[C@@]1(C)C1=C(C3=O)[C@@H]2CCC(=O)[C@@]2(C)C[C@H]1OC(C)=O | active: 1.84 µM | – |
| NC(=O)c1cccc(-c2cccc(OC(=O)NC3CCCCC3)c2)c1 | inconclusive [inhibitor, partial curve] | – |
| O=C1C=CC(=O)c2c(O)cccc21 | inconclusive [inhibitor, single point] | – |
| CSc1ncc(CN2CCCC(C(=O)c3ccccc3SC)C2)cn1 (centres undefined) | – | inconclusive: -31.5% [inhibitor] |
| CSc1nn(-c2ccc(C(=O)OCC(=O)NC(=O)NC(C)C)cc2)c(=S)s1 | inconclusive [inhibitor, single point] | – |
| O=C(COc1ccc(Cl)cc1Cl)N1CCN(C/C=C/c2ccccc2)CC1 | inconclusive [inhibitor, single point] | – |
| COC(=O)C1=C(c2ccc(OC(F)(F)F)cc2)C[C@@H]2CC[C@H]1N2C(=O)NCCO | inactive | – |
| O=C(NCCCN1CCCC1)c1ccc2c(c1)N(Cc1cccc(Cl)c1)C(=O)c1ccccc1S2=O (centres undefined) | inconclusive [inhibitor, single point] | – |
| Cc1ccc(S(=O)(=O)N2CCCCC2)cc1NC(=O)Nc1ccc(Cl)cc1Cl | inconclusive [inhibitor, full curve, poor fit] | – |
| CCCCOc1ccc(C(=O)NCC(=O)N2CCN(C/C=C/c3ccccc3)CC2)cc1 | active: 16.4 µM | – |
| Brc1ccc(Oc2cc(Br)c(Br)cc2Br)c(Br)c1 | inconclusive [inhibitor, single point] | – |
| NCC(=O)c1ccc(Cl)c(Cl)c1 | inconclusive [inhibitor, single point] | – |
| CC12CCC3C(CC=C4CC(O)CCC43C)C1C/C(=C\c1cccc(F)c1)C2=O (centres undefined) | active: 14.6 µM | – |
| CCOC(=O)CCCCCNC(=O)c1c(O)[nH]c(=O)[nH]c1=O | inactive | – |

| SMILES | Potency | activity change, negative = growth inhibition |
| --- | --- | --- |
| CNC(=O)O/N=C(\N)Cc1csc2ccccc12 | inconclusive [inhibitor, single point] | – |
| O=c1cccc2n1CC1CC2CN(Cc2c(F)cccc2Cl)C1 (centres undefined) | inconclusive [inhibitor, partial curve] | – |
| COc1ccc(C(=O)C2CCCN(Cc3ccon3)C2)c(OC)c1 (centres undefined) | inconclusive [inhibitor, single point] | – |
| Cc1cc(Oc2cc(NN3CCCCC3)c([N+](=O)[O-])cc2[N+](=O)[O-])ccc1[N+](=O)[O-] | inconclusive [inhibitor, single point] | – |
| CCOC(=O)C(=CNc1ccc(C(O)(C(=O)OCC)C(F)(F)F)cc1C)C(=O)OCC (centres undefined) | active: 11.6 µM | – |
| CCCCSc1nc2c(cnn2-c2ccccc2)c(=O)n1N | inconclusive [inhibitor, partial curve] | – |
| O=c1[nH]c2ccccc2n1C1CCN(C(c2nnnn2C2CCCCC2)C2CC2)CC1 (centres undefined) | active: 14.6 µM | – |
| O=C1CNC(c2ccccc2Cl)c2cc(Br)ccc2N1 (centres undefined) | active: 8.2 µM | – |
| COC1C(O)C(C)O[C@@H](OC2CC[C@@]3(C)C4CC[C@]5(C)C(C6=CC(=O)OC6)CC[C@@]5(O)C4CC[C@@H]3C2)C1O (some centres undefined) | active: 0.651 µM | – |
| Cc1ccc(-n2nc(C)c3c2NC(=O)CSC3c2ccc(O)cc2)cc1Cl (centres undefined) | inconclusive [inhibitor, single point] | – |
| CCOP(=O)(OCC)/C(C#N)=C/c1ccc(-c2ccc(F)cc2F)o1 | inconclusive [inhibitor, single point] | – |
| Fc1ccc(CCNCc2ccc(Br)cc2)cc1 | – | inconclusive: -31.8% [inhibitor] |
| O=C(c1ccc2c(c1)OCO2)C1CCCN(Cc2ccc(F)c(F)c2)C1 (centres undefined) | inactive | – |
| Cc1cccc(C)c1NC(=O)c1cccn(Cc2ccc3c(c2)OC(F)(F)O3)c1=O | inconclusive [inhibitor, single point] | – |
| C[C@@]12CC[C@@H](c3cc4c(cc3C1)OCO4)N2c1ccccc1 | inconclusive [inhibitor, single point] | – |
| CCCCn1c(O)c(C(C)=NC(C)c2ccccc2)c(=O)[nH]c1=O (centres undefined) | inconclusive [inhibitor, single point] | – |
| CC(C)S(=O)(=O)N1Cc2ccccc2-n2nncc2C1 | inactive | – |
| COc1ccc(N2CCN(C(=O)C3CCCN(S(=O)(=O)c4ccc5c(c4)CCCN5C(C)=O)C3)CC2)cc1 (centres undefined) | active: 2.31 µM | – |
| O=C(NCC(c1cccnc1)N1CCN(c2ccccc2F)CC1)Oc1ccccc1 (centres undefined) | – | inconclusive: -38.5% [inhibitor] |
| Nc1ccc(N=Nc2ccccc2)cc1 | inconclusive [inhibitor, single point] | – |
| O=C(Cn1c(=O)n(Cc2ccccc2)c(=O)c2sc3ccccc3c21)NCc1ccccc1Cl | inconclusive [inhibitor, full curve] | – |
| CCOC(=O)c1nc2ccccc2c(=O)n1-c1ccc(C)cc1C | active: 10.3 µM | – |
